From the supplement of paper PMC7826260 come the findings set out here.

The other results are listed elsewhere or left out. Viral Rep nickase domains cut single-stranded DNA in vitro (3 µM enzyme, 1 h, 37 °C); shown is the middle of each 90-letter strand. Values are log2 of uncut reads against the no-enzyme pool; the lower, the more was cut; hits are not called. Because reads are shares of a total, they shift together; values above 0 arise when much of the pool is cut.

The test system of the test is T1, Rep nickase domain of tomato golden mosaic virus.
T1 sequence (protein, residues 1-124, tag omitted): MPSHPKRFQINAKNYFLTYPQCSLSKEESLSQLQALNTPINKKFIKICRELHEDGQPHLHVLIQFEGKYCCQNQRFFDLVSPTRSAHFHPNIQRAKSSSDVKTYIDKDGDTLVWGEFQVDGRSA
In words: uncleaved DNA left, log2 of reads against the no-enzyme library (log2 ratio); higher = less cleavage (more negative = more Rep cleavage of the k-mer); sequences stand for … in CTCGTCCG…ACCGGAGA
As for the experimental part: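 A pool of 90-nt single-stranded DNAs with seven random bases just before the constant AC of the nick site (name = the seven bases) was cut by 3 µM recombinant His6-SUMO-tagged Rep nickase domain (300 nM DNA, 50 mM HEPES pH 8.0, 50 mM NaCl, 1 mM MnCl2, 1 h, 37 °C, three replicates). Uncut DNA was amplified and sequenced.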
Turning to GAGAGAG, the “uncleaved DNA left (log2)” value amounted to 0.0438.
Turning to CTAATCA, the “uncleaved DNA left (log2)” value worked out at 0.0663.
For CGTGTCA the value was -0.0192.
On to CGGATCG, for which the “uncleaved DNA left (log2)” value worked out at 0.0464.
Take CCATAGG: the “uncleaved DNA left (log2)” value was -0.0661.
As to CCCTTGA, the “uncleaved DNA left (log2)” value was -0.1.
GATACCG: the “uncleaved DNA left (log2)” value came to 0.00813.
On to ATTTCGT, for which the “uncleaved DNA left (log2)” value is -0.142.
With ACTTCGT, the “uncleaved DNA left (log2)” value is 0.0812.
As for GTGGTCC, the “uncleaved DNA left (log2)” value came to 0.0649.
In the case of AGGTAGT, the “uncleaved DNA left (log2)” value is -0.0253.
Turning to CGCTGAA, the “uncleaved DNA left (log2)” value was -0.118.
Turning to AATGTTT, the “uncleaved DNA left (log2)” value is -0.00462.
With TTACTCT the figure was -0.0924; with ACCATAA, 0.0742; with AGTAGCG, -0.0267.
Take TCGTCAA: the “uncleaved DNA left (log2)” value is -0.14.
With CGCACAG the figure was -0.0908.
For GACTCGC, the “uncleaved DNA left (log2)” value was -0.07.
For ACCTGGA, the “uncleaved DNA left (log2)” value worked out at 0.0528.
For TGCGTAA the value was -0.0113; for ATTGCCT, -0.172; for CCACGTG, 0.0964.
In the case of CCACTCG, the “uncleaved DNA left (log2)” value was 0.0729.
For the sequence GATGTTA, the “uncleaved DNA left (log2)” value is 0.117.
With TCTTAGT the figure was 0.0972.
As for CGAAGGG, the “uncleaved DNA left (log2)” value is -0.0487.
With TTATCCA, the “uncleaved DNA left (log2)” value was -0.0324.
In the case of TTGGCTG, the “uncleaved DNA left (log2)” value is -0.065.
With CACTATC, the “uncleaved DNA left (log2)” value is -0.0205.
Take TCGGGCT: the “uncleaved DNA left (log2)” value is -0.0785.
As to GGTATGT, the “uncleaved DNA left (log2)” value was -0.0335.
For GCTAAAC the value was -0.0957; for ATTGCGG, -0.0436.
As for TTAGGGA, the “uncleaved DNA left (log2)” value was found to be 0.126.
Consider GCGGCGC, for which the “uncleaved DNA left (log2)” value was -0.183.
With CCATTCT the figure was -0.0785.
Turning to CCGCATC, the “uncleaved DNA left (log2)” value is -0.00495.
GGGCAAA: the “uncleaved DNA left (log2)” value was 0.0842.
For TACGTCA, the “uncleaved DNA left (log2)” value was 0.0213.
